# Laboratory results from the supplement of paper PMC11417369.
# The other results are listed elsewhere or left out.
# Test system: PfAP2-HC AP2 domain (GST-tagged)
# Test: gcPBM binding intensity (ln(normalized median fluorescence intensity)); higher = stronger DNA binding
# In short: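 After 1 h on an Agilent 4 × 180k array of primer-extended double-stranded 36-bp intergenic genomic probes and negative controls, bound GST-tagged P. falciparum DNA-binding domains were detected with Alexa488 anti-GST antibody and scanned at 488 nm. The domains had been expressed in E. coli, and binding took place in 1× PBS with 1% milk, 0.2 mg/ml BSA, 0.5% salmon testes DNA and 0.03% Triton X-100. Binding intensity is the highest Masliner-normalised natural-log median intensity across replicate spots of either probe orientation.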
row,Sequence,gcPBM binding intensity (ln)
1,AAAAAAAAAATTTACTGTACACATTTGGGATACTCA [XGTACX_site5191],9.58
2,ATATGTAGTTTTTATTGTACGTGTAGAAGAAATAAT [XGTACX_site6608],9.86
3,TTCATTAAAATTATTACACACAGTTCTTCAACCAAA [CACACA_site3504],9.72
4,AATGATTTTCAATCGAAATGAAACTTAGAAGATATA [CACACA_negctrl_site1475],9.5
5,TTTTAAACAGGACACACACACATATAGATTTATATA [CACACA_site6560],10.3
6,AAACTTTTTTTAAAAACACACATATAGATTTATATA [CACACA_site7842],9.63
7,TTTTGTTATTTTTGTATGCACTACATATTATTATAT,9.99
8,TATTTTTAAACAAAACTGTATTTATTTTTTAAAATT [CACACA_negctrl_site1449],9.44
9,TAGTTTTTTATATATTGTACAAATGATATATTATAT [XGTACX_site1002],9.56
10,GAAATTAAAAAATTTATGCACACTTTAAAAAAAAAA [CACACA_site3769],9.58
11,ATATATATATATAATTGTACATTTTTATGTTTTATA [XGTACX_site4560],9.92
12,ATGAAAAAAAATAAAAAATATATATATATATATATA [CACACA_negctrl_site236],9.48
13,TATATTTTAATTTGAAGTACTAATATTTATTTATAT [XGTACX_site7458],9.47
14,TATAACCATATATACACACACATATAAATATAAATA [CACACA_site7089],10.1
15,AAGGTGGAAACAATTACACACACACTAAAAAAAAAA [CACACA_site7493],10.8
16,ATATATATATATTTCGTGCACTGATAATATTATTTT,9.75
17,TTGTCTACAAAAATGTGCTTCTAATCATACGACTTG [CACACA_negctrl_site46],9.47
18,TACATATATTATTGCACACATATAAAATACCCCCAA [CACACA_site3895],10.1
19,CAGTTTACTAATATTGCACACGAATATGAAAAAGAG [CACACA_site8941],9.84
20,TTTTTTTTTCAAGAGGTGCGTGTATTTTAACAAAAA,9.46
21,AAAAAAAATTATGAAGTGCATTAGTGAATTTGATTG,9.61
22,TTATCATTTGCCATTGTGCACTTATATGCTCACATT,9.9
23,TTTTTCACACTTCAAAAGTGTCAACCTTCTATTCTC [TGCATGCA_negctrl_site489],9.81

row,Sequence,gcPBM binding intensity (ln)
1,CACAAATATACAAATACACACAAATATACAAATACA [CACACA_site2385],10.1
2,GTAAAATTTACATAGAGTACTTATATTTTTTTCTGC [XGTACX_site3414],9.45
3,ATATTGTAAGTAAACACACACACATATATCTGTATA [CACACA_site4541],10.3
4,TAAAGTGTAAAATTCACACACATATATATATATATA [CACACA_site4883],9.84
5,ATTTTTTTTTTCTTTTTTTTTTGTTTTTCTCCTTTT [CACACA_negctrl_site1182],9.49
6,ATTTTTTTTATTATTACACACATATAATAAAAAAAT [CACACA_site1802],9.44
7,GTATAATTTATTGAACGTACACATATATATATGTAT [XGTACX_site1395],9.74
8,AATAAAATGCAATACATTTTGTTATATAATGTTGTT [CACACA_negctrl_site1525],9.7
9,CACAATGTAGTGTATAAATACAATAAAAGGTTGTAT [CACACA_negctrl_site700],9.87
10,AAATGTATAGGAATAATAATAAAAAAAAAAAAAAAT [CACACA_negctrl_site1793],9.65
11,TGGAGGTCAGTTCACAGTACCCAGTAACTCTACGGA [XGTACX_site2549],9.3
12,AAAAAAAATAAAATAATAAAAATTATGAATATATAT [CACACA_negctrl_site280],9.63
13,ATCATTCCACTTTTCACACATATCTCTATTTCTATC [CACACA_site4723],10.1
14,ATAGGTAATAATAATACACACGGTGAAATATAGATG [CACACA_site9336],10.3
15,TATTTCTTATTACATACACACATATACATAGATGAC [CACACA_site5729],9.86
16,TCTTGTCTACCTTGTATTTAATATTTACATATATAA [TGCATGCA_negctrl_site320],9.78
17,TATTTGTAAAAATTGTGTACTTAGAAAATTCCAAAA [XGTACX_site6007],9.22
18,TATATGTTTTTATGTACACACTTTTAACCTAAGAAA [CACACA_site4769],9.61
19,TTCTTGTATATATTTTGTACATATATACCATTTTAG [XGTACX_site2409],9.88
20,TTAAATGTAATATAATGTACGGATATTTACCATAAA [XGTACX_site1472],9.42
21,TACAAATATGGACACACACACATATATATATATATA [CACACA_site4488],11.3
22,TTATTTTTTTATTCATGTACACAAGAACATTTCATT [XGTACX_site5744],9.62
23,TAAATATATTGGAGAGGTACACTTTTGGCATTGAAA [XGTACX_site8447],9.49

row,Sequence,gcPBM binding intensity (ln)
1,GTATATATAATGTGCCGTACATTTATATATTCAATA [XGTACX_site1051],9.54
2,GTATAATAGAAACACACACACACACCCAAAAAAAAA [CACACA_site2010],10.7
3,AAGTATGTATCACAAAGTACTTAAGCATATATTTAA [XGTACX_site4121],9.71
4,TTGTAATAAATAAAAGTGCATATATGGTTCCACTAT [GTGCAC_site9944],9.61
5,TATAATTATATAAATTGTACATAAAAAGTTTTTACT [XGTACX_site3621],9.45
6,TATTATATCTTTTCAAGTACACATAACATACTTATT [XGTACX_site1081],9.8
7,ACATATTAAATATGAGTGCAATATATATATATATAA,9.77
8,TATATATACTTTTATGTACACACCTATAATATGGGT [CACACA_site1759],9.87
9,AAATGTAATAATAAATGTACAAACATATATATGTAT [XGTACX_site8718],9.81
10,ATAAATAAATAAAAAAGTACATTTCCACTTTTAACA [XGTACX_site81],9.38
11,TGCACCCACCAACACACACACAACTAAAAAATAATG [CACACA_site2566],10.5
12,AAGTTTAAAATCTTTGCACACATATAAATAAATATA [CACACA_site2554],9.63
13,CAATATATTATATGGGTGCAAACCACATATAAATAA,9.67
14,TTAGGTATATATAAACGTACTCACAATATCATATAA [XGTACX_site8743],9.54
15,ACTTAGGAAATAAAACGTACATTAAATATATACATA [XGTACX_site2990],9.61
16,TGAATAATCAATAGTACACACATATAAATATAAATA [CACACA_site7345],9.88
17,TTTTATTTATTATTATGTACACACTATATTAAAACA [XGTACX_site1265],9.69
18,GTATGTATGTATGTATGTACTTATTAATCAGTAAAA [XGTACX_site3844],9.71
19,ATAAAAGATATGTATATGTATATGTATATATATATA [TGCATGCA_negctrl_site214],10.1
20,TATAAATAAATAGATACACACATATTTATAAATACA [CACACA_site6219],9.79
21,TTACGCTGCTATATAGTGCACATAATATATGACCTG,9.43
22,GCTTAAGGTAAATATAAAATATAGTGTATACTTTAG [XGTACX_negctrl_site585],9.51
23,AAATAAAATAATAAAACATGCAAAAATAATGATTTA [TGCATGCA_site415],9.83

row,Sequence,gcPBM binding intensity (ln)
1,ATAAAGATTAACAAAGTGCATTTATATATATAATCT [GTGCAC_site9407],9.68
2,TTTTTGTTAACAATGGGTACAAAAAAAAGGAAAATA [XGTACX_site7466],9.49
3,CCCAAAAAATATCATAGTACTCAACATGACTACTAT [XGTACX_site7838],9.63
4,AATTTTGTATAGGTATCACACATGAAATATATTATT [CACACA_site5526],9.7
5,ATTCTACGCACGCGCACACACAACAAAAAAAAAAAA [CACACA_site3538],9.98
6,GTGATGGTACAATATACACACTTAAAAAAAAAAAAT [CACACA_site5360],9.62
7,CATGTGTGATAATGATGTACTATATTAAGCTAGTCC [XGTACX_site2690],9.62
8,TATATACATATATATTGTACTTATTTTTATAATGTC [XGTACX_site3453],9.75
9,TTTATAATTCTTACAACACACAATGTACTTTTATAT [CACACA_site8340],9.9
10,TTTATTTCCTTTTTGTGTACATATATATGTAATTCA [XGTACX_site1718],9.77
11,TTAAGGCATCAACATAGTACAATTTTTCTATAATAA [XGTACX_site1114],9.4
12,ATTTAATACAAATACACACACAAATAAATACAGATA [CACACA_site5956],10.2
13,TCGAATATCTTATAGGTGCATCATAAATACATATGT,9.66
14,TAATTCTTTATTTTTCGTACGTAAAACAAAAAATAT [XGTACX_site862],9.51
15,AATGTAAAGAACAAAACATGCAACTAGTTTACTTTT [TGCATGCA_site841],9.72
16,TAGAAAAAAGATAGCACACACGGCCCAATATATATA [CACACA_site5354],10
17,TAAGTATATAAAATTACACACTATTTTTTTTCAAGT [CACACA_site1792],9.62
18,ATGCAATAATAATGGAGTACATATTAATATTGATCA [XGTACX_site2312],9.66
19,AAAAAATATATTAAGGCACACACATACATATATATA [CACACA_site9239],10.2
20,CCTTTTGGATGAAAGTGTACAGGTGAGAAAAATTCC [XGTACX_site3358],9.5
21,TTAATTTCGAATTATTGTACATTAATATATCTACAG [XGTACX_site3314],9.4
